# Assay results from the supplement of paper PMC11348887.
# Where a name gives a salt, the structure may show the parent alone. The list shows a part of the results. No stated cut-off is given here; in the data, active = -2 or less and inactive = the rest. Repeats are few or missing, and single values can be far off.
# System: hPSC-derived cortical neurons (WA09)
# Assay: nuclei number (viability) z-score; higher = more surviving cells
# Settings: 5 µM; treatment: days 7-14 after plating, readout day 21
# 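Further: nuclei counted from DAPI counterstain by automated high-content image analysis, four fields per well at ×20 in 384-well plates, with sequential b-score then z-score normalization.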
row,Structure (SMILES),nuclei number (z-score)
1,COc1cc2/c(=N/c3ccc(Br)cc3F)nc[nH]c2cc1OCC1CCN(C)CC1 [Vandetanib (ZD6474)],inactive: 1.01
2,C=C[C@@]1(C)CC(=O)[C@]2(O)[C@@]3(C)[C@@H](O)CCC(C)(C)[C@@H]3[C@H](O)[C@H](OC(C)=O)[C@@]2(C)O1 [Forskolin],inactive: 0.339
3,O=C(CCCCCN1C(=O)c2cccc3cccc(c23)C1=O)NO [Scriptaid],active: -4.08
4,Cc1cc(OCCCS(C)(=O)=O)cc(C)c1-c1cccc(COc2ccc3c(c2)OC[C@H]3CC(=O)O)c1,inactive: 1.53
5,CCN(CC)C(=S)SSC(=S)N(CC)CC [Disulfiram],inactive: -1.11
6,O=c1cc(-c2ccccc2)oc2cc(O)cc(O)c12 [Chrysin],inactive: -0.404
7,O=c1sn(-c2cccc3ccccc23)c(=O)n1Cc1ccccc1 [Tideglusib],inactive: 0.238
8,Nc1c2c(nc3ccccc13)CCCC2 [Tacrine HCl],inactive: -0.501
9,COc1ccc(S(=O)(=O)Nc2cccnc2Nc2ccc(O)cc2)cc1,active: -4.47
10,Cc1ccc(NC(=O)c2cccc(N(C)C)c2)cc1NC(=O)c1ccc(O)cc1,inactive: 1.35
11,O=C1NCCc2[nH]c(-c3ccncc3)cc21,active: -3.19
12,COC(=O)C1=C(C)NC(C)=C(C(=O)OC2CCCN(Cc3ccccc3)C2)C1c1cccc([N+](=O)[O-])c1 (stereo unspecified) [Benidipine HCl],active: -3.36
13,CCNC(=O)CCC/C=C\C[C@@H]1[C@@H](/C=C/[C@@H](O)CCc2ccccc2)[C@H](O)C[C@@H]1O [Bimatoprost],inactive: -0.35
14,O=C(CCCCCCC(=O)Nc1ccccc1)NO [Vorinostat (SAHA_ MK0683)],active: -4.33
15,C[C@H](Oc1ccc(S(C)(=O)=O)cc1C(=O)N1CCN(c2ncc(C(F)(F)F)cc2F)CC1)C(F)(F)F [Bitopertin],inactive: 2.9
16,NC[C@H]1O[C@H](O[C@H]2[C@H](O)[C@@H](O[C@H]3O[C@H](CO)[C@@H](O)[C@H](N)[C@H]3O)[C@H](N)C[C@@H]2N)[C@H](O)[C@@H](O)[C@@H]1O [Kanamycin sulfate],inactive: 0.305
17,CC[C@H]1OC(=O)C[C@@H](O)[C@H](C)[C@@H](O[C@@H]2O[C@H](C)[C@@H](O[C@H]3C[C@@](C)(O)[C@@H](O)[C@H](C)O3)[C@H](N(C)C)[C@H]2O)[C@@H](CC=O)C[C@@H](C)C(=O)/C=C/C(C)=C/[C@@H]1CO[C@@H]1O[C@H](C)[C@@H](O)[C@@H](OC)[C@H]1OC [Tylosin tartrate],inactive: -0.316
18,O=C(/C=C/c1ccc(O)c(O)c1)c1ccc(O)cc1O [Butein],inactive: -2
19,NCCCCCNCC12CC3CC(CC(C3)C1)C2 [IEM 1754 dihydrobroMide],inactive: 0.197
20,O=C(O)c1ccc2c(c1)nc(Nc1cccc(Cl)c1)c1ccncc12 [CX-4945 (Silmitasertib)],inactive: -0.737
21,CC1(C)O[C@@H]2C[C@H]3[C@@H]4CCC5=CC(=O)C=C[C@]5(C)[C@H]4[C@@H](O)C[C@]3(C)[C@]2(C(=O)CO)O1 [Desonide],inactive: 6.69

row,Structure (SMILES),nuclei number (z-score)
1,CC1(O)CCC(C(C)(C)O)CC1 (stereo unspecified) [Terpin hydrate],inactive: 0.832
2,COc1cc(N2CCC(N)CC2)ccc1Nc1ncc(Cl)c(-c2c[nH]c3ccccc23)n1,active: -2.86
3,CCOC(=O)n1ccn(C)c1=S [Carbimazole],inactive: 0.0507
4,O=C1CN(/N=C/c2ccc(-c3ccc([N+](=O)[O-])cc3)o2)C(=O)N1 [Dantrolene sodium hemiheptahydrate],inactive: -0.486
5,Nc1[nH]nc2nnc(-c3c(-c4ccccc4)nn4ccccc34)cc12,inactive: 0.687
6,Cc1cc(NS(=O)(=O)c2ccc(N)cc2)no1 [Sulfamethoxazole],inactive: 1.12
7,CN[C@@H]1[C@@H](O)[C@@H](O[C@@H]2[C@@H](O)[C@H](O[C@H]3OC(CN)=CC[C@H]3N)[C@@H](N)C[C@H]2N)OC[C@]1(C)O [Sisomicin sulfate],inactive: 2.65
8,O=C1CN(/N=C/c2ccc([N+](=O)[O-])o2)C(=O)N1 [Nitrofurantoin],inactive: 0.639
9,CC(C)N(CCCNC(=O)Nc1ccc(C(C)(C)C)cc1)C[C@H]1O[C@@H](n2cc(Br)c3c(N)ncnc32)[C@H](O)[C@@H]1O,inactive: -0.439
10,CC(C)(C)C(=O)C(Oc1ccc(Cl)cc1)n1ccnc1 (stereo unspecified) [Climbazole],inactive: -1.04
11,CC1(C)S[C@@H]2[C@H](NC(=O)C(C(=O)O)c3ccccc3)C(=O)N2[C@H]1C(=O)O (stereo partly specified) [Carbenicillin disodium],active: -2.24
12,C[C@H](N)[C@H](O)c1cccc(O)c1 [Metaraminol Bitartrate],inactive: -0.723
13,Cc1cc(C)c2c(c1)[C@@H](N(Cc1cc(C(F)(F)F)cc(C(F)(F)F)c1)c1nnn(C)n1)CCCN2C[C@H]1CC[C@H](C(=O)O)CC1,inactive: -0.522
14,CCOC(=O)c1ncn2c1CN(C)C(=O)c1cc(F)ccc1-2 [Flumazenil],inactive: 0.681
15,CC1=C(C(=O)Nc2cc3cn[nH]c3cc2F)C(c2ccc(C(F)(F)F)cc2)CC(=O)N1 (stereo unspecified),inactive: -0.54
16,CNC(=O)c1ccccc1Nc1nc(Nc2ccc(N3CCOCC3)cc2OC)ncc1Cl,active: -2.04
17,CCCCN(Cc1ccc(C(=O)NO)cc1)C(=O)Nc1ccccc1 [Nexturastat A],inactive: -0.196
18,COC(=O)N[C@H](C(=O)N1CCC[C@H]1c1ncc(-c2ccc(-c3ccc(-c4cnc([C@@H]5CCCN5C(=O)[C@@H](NC(=O)OC)C(C)C)[nH]4)cc3)cc2)[nH]1)C(C)C,inactive: -0.0167
19,CC(C(=O)O)c1cccc(C(=O)c2ccccc2)c1 (stereo unspecified) [Ketoprofen],inactive: 0.466
20,NCCCC[C@@H]1NC(=O)[C@@H](Cc2ccccc2)NC(=O)[C@H](CC(=O)O)NC(=O)CNC(=O)[C@H](CCCN=C(N)N)NC1=O [Cyclo (-RGDfK)],inactive: 3.69
